# Data published in the supplement of paper PMC11383711.
# This is one part of the list. Binding of human antibodies (heavy:light variable regions, tested as scFv in one mRNA-display pool) to influenza hemagglutinin, with or without the stem antibody CR9114 bound first. Score = (mean enrichment − median) / interquartile range of that screen; higher = more enriched, 0 = typical non-binder. Active = above the paper's cut-off per screen: stems 28; unblocked H1 Solomon Islands 5, H1 Michigan 3, H3 5, H5 19, H7 2.85, both B 5; blocked 9, 7, H5 10, H7 10, B Phuket 10, B Lee 11.5. Scores are scaled within each screen and are no affinities; replicates correlate at about 0.6 to 0.9, and antibodies rare in the pool are noisier.
# B1: C6-2-D02 (protein)
# chain 1: VQLVESGGGLVQPGGSLRLSCAASGFTFNTHLMYWVRQAPGKGLEWVSLISPAGRNKFYADSVRARFTISRVNSRNTLYLQIDTVRPEDTAVYYCATRSVGATGYLSWGPKDYSYNDVDVWGQGTTVTVSS
# chain 2: DIQMTQSPSSLSASVGDTVTIACRASQGIRSDLGWYQQQAGKAPRRLIYGASSLQSGVPSRFSGSGSGTEFTLTISSLQPEDFATYYCLQHNSYPWTFGQGTKVEIK
# B2: C6-2-C01 (protein)
# chain 1: VQLVESGGGLVKPGASLRLSCVGSGFIFSNAWMNWVRQAPGKGLEWVGRMKIYTDGGTTDYAAPVKGRFTISRDDSKNTLYLQMSSLKTEDTAMYYCVTDFSGRRPYWGQGTLVTVSS
# chain 2: DIQMTQSPSTLSASVGDRVTITCRASQRISNWLAWYQQKPGKAPKLLIYEASTLESGVPSRFSGSGSGTEFTLTINSLQPDDFATYYCQLYNDYSGFTFGPGTKVDIK
# B3: antibody 6F06 (protein)
# chain 1: VQLVESGGGLVQPGRSLRLSCAASGFTFDDYAMHWVRQAPGKGLEWVSTISWGSAGVGYADSVKGRFTISRDNANSALYLQMSSLRPEDTALYYCAKDRGYSTSQDYYYYFGMDVWGQGTTVTVSS
# chain 2: DIQMTQSPSSLSASVGDRVTITCQASQDINKYLIWYQQRPEKAPKLLIYDASNLETGVPSRFSGSGSGTDFTFTISNLQPEDIATYYCQQYESFPLTFGGGTKVEIK
# B4: W85-1C02 (protein)
# chain 1: EVQVVESGGGLVQPGGSLRLSCAASGFTVSGNYMHWVRQAPGKGLEWVSVLYAGGRTYYADSVKGRFTISRDNSKNMLYLQMNSLSVEDTAVYYCAGLSLEWLDVWGQGTTVAVSS
# chain 2: DIQMTQSPSSLSASVGDRVTITCRAGQNIASYLNWYQHRPGKAPRLLIFAASSLQTGVPSRFSGSGSGSDFTLTISSLQPEDFATYYCQQTYSFFLTFGGGTKVEVK
# B5: antibody 4B04 (protein)
# chain 1: VQLVESGGGVVQPGRSLRLSCAVSGFTFISYDMHWVRQAPGKGPEWMAYISYDGNRQYYADSVKGRFTISRDNSKNTLHLQMNSLKPEDTAVYSCAREFVPPGPDDYYFGLDVWGQGTTVTVSS
# chain 2: EIVLTQSPATLSLSPGDRATLSCRASQSVGSYLAWYQQKPGQAPRLLIYDASKRATDIPARFSGSGSGTDFTLTISSLEPADFAIYYCQLRSDWPPGFTFGRGTKVEIK
# B6: K77-1G08 (protein)
# chain 1: LVQPQESGPGLVKPSETLSLTCTVSNGSISSGNFYWGWIRQPPGKGLEWLGAIYYTGITYYSPSLKRRLTISVDTSMNQFSLRLNSVTAADTAVYYCARDLAPYYYGSGTFYNIFDHWGQGTLITVSS
# chain 2: QSALTQPPSVSAAPGQRVTISCSGSRSNIGNYYVSWYQQFPGTAPKLLIYDNDKRPSGIPDRFSGSKSGTSATLGITGLQTGDEADYYCGTWDSSLSAHVIFGGGTKLTVL
# Target: Influenza A H1N1 A/Michigan/45/2015 hemagglutinin ectodomain
# Assay: mRNA display binding score; higher = more enriched on the antigen
# Conditions: antigen blocked with: 2 µM CR9114 IgG
# Experimental: (§1)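 A pool of natively paired antibodies, displayed as scFv on mRNA, was selected once on antigen-coated beads and sequenced before and after; two replicates.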
row,Binder,mRNA display binding score
1,B1,inactive: 0.292
2,B2,inactive: 0.311
3,B3,inactive: 0.131
4,B4,inactive: -0.298
5,B5,inactive: 0.719
6,B6,inactive: -0.583

# Same assay, conditions: antigen blocked with: nothing
row,Binder,mRNA display binding score
1,B1,inactive: 1.3
2,B2,inactive: -0.0639
3,B3,inactive: -0.453
4,B4,inactive: -0.147
5,B5,inactive: 0.0239
6,B6,inactive: -0.332

# Target: Influenza A H1N1 A/Solomon Islands/3/2006 hemagglutinin ectodomain
# Assay: as above
# Conditions: antigen blocked with: 2 µM CR9114 IgG
# Experimental: as §1
row,Binder,mRNA display binding score
1,B1,inactive: -0.00443
2,B2,active: 84.3
3,B3,inactive: 0.0658
4,B4,inactive: 0.765
5,B5,inactive: 1.16
6,B6,inactive: -0.508

# Same assay, conditions: antigen blocked with: nothing
row,Binder,mRNA display binding score
1,B1,inactive: 0.37
2,B2,active: 75.4
3,B3,inactive: -0.087
4,B4,inactive: -0.592
5,B5,inactive: 0.772
6,B6,inactive: -0.197

# Target: Influenza A H3N2 A/Singapore/INFIMH-16-0019/2016 hemagglutinin ectodomain
# Assay: as above
# Conditions: antigen blocked with: nothing
# Experimental: as §1
row,Binder,mRNA display binding score
1,B1,inactive: 0.855
2,B2,inactive: 0.395
3,B3,inactive: -0.23
4,B4,inactive: -0.082
5,B5,inactive: -0.0884
6,B6,inactive: -0.333

# Target: Influenza A H5N1 A/Qinghai/1A/2005 hemagglutinin ectodomain
# Assay: as above
# Conditions: antigen blocked with: 2 µM CR9114 IgG
# Experimental: as §1
row,Binder,mRNA display binding score
1,B1,inactive: 0.558
2,B2,inactive: 0.0619
3,B3,inactive: -0.314
4,B4,inactive: 0.138
5,B5,inactive: -0.0842
6,B6,inactive: -0.494

# Same assay, conditions: antigen blocked with: nothing
row,Binder,mRNA display binding score
1,B1,inactive: 0.519
2,B2,inactive: -0.145
3,B3,inactive: -0.204
4,B4,inactive: -0.51
5,B5,inactive: 0.14
6,B6,inactive: -0.542

# Target: Influenza A H7N9 A/Shanghai/2/2013 hemagglutinin ectodomain
# Assay: as above
# Conditions: antigen blocked with: 2 µM CR9114 IgG
# Experimental: as §1
row,Binder,mRNA display binding score
1,B1,inactive: 0.231
2,B2,inactive: 0.045
3,B3,inactive: 0.0873
4,B4,inactive: 0.177
5,B5,inactive: -0.746
6,B6,inactive: -0.365

# Same assay, conditions: antigen blocked with: nothing
row,Binder,mRNA display binding score
1,B1,inactive: 1.47
2,B2,inactive: -0.153
3,B3,inactive: -0.0172
4,B4,inactive: 0.0282
5,B5,inactive: -0.226
6,B6,inactive: -0.379

# Target: Influenza B/Lee/1940 hemagglutinin ectodomain
# Assay: as above
# Conditions: antigen blocked with: 2 µM CR9114 IgG
# Experimental: as §1
row,Binder,mRNA display binding score
1,B1,inactive: -0.307
2,B2,inactive: -1.01
3,B3,inactive: 0.805
4,B4,inactive: 1.63
5,B5,active: 16.1
6,B6,inactive: 0.305

# Same assay, conditions: antigen blocked with: nothing
row,Binder,mRNA display binding score
1,B1,inactive: 0.0637
2,B2,inactive: -0.0164
3,B3,inactive: 0.649
4,B4,inactive: 2.44
5,B5,active: 64.8
6,B6,inactive: 2.67

# Target: Influenza B/Phuket/3073/2013 hemagglutinin ectodomain
# Assay: as above
# Conditions: antigen blocked with: 2 µM CR9114 IgG
# Experimental: as §1
row,Binder,mRNA display binding score
1,B1,inactive: 0.276
2,B2,inactive: -0.256
3,B3,inactive: -0.0968
4,B4,inactive: -0.287
5,B5,inactive: -0.236
6,B6,inactive: 1.23

# Same assay, conditions: antigen blocked with: nothing
row,Binder,mRNA display binding score
1,B1,inactive: 0.237
2,B2,inactive: -0.019
3,B3,inactive: 0.101
4,B4,inactive: -0.4
5,B5,inactive: -0.0669
6,B6,inactive: -0.0293
